± gives the standard deviation of the averaged measurements. This is one part of the list.
system: PfAP2-EXP AP2 domain (GST-tagged); experiment: gcPBM binding intensity (ln(normalized median fluorescence intensity)); higher = stronger DNA binding
Procedure, shortened: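 GST-fused DNA-binding domains of P. falciparum, expressed in E. coli, were applied at about 25 μg on average for 1 h to an Agilent 4 × 180k array of primer-extended double-stranded 36-bp intergenic genomic probes and negative controls. Binding intensity is the highest Masliner-normalised natural-log median intensity across replicate spots of either probe orientation, measured with Alexa488 anti-GST antibody and a 488 nm scan.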

Sequence	gcPBM binding intensity (ln)
TATATGTCAATATCTACACACATATATATAATTATT [CACACA_site3156]	8.44 ± 0.47
AATATAAAACATATCACACATATGTATTTATGTATA [CACACA_site5763]	8.23 ± 0.33
AAAAAAAAAAAAACATGTACATAAATGTAAAAAAGT [XGTACX_site8158]	8.67 ± 0.88
AACATACACATATACACACACACATATATACATATA [CACACA_site1093]	8.72 ± 0.44
ATTTTTTTTCTTTTTTTTTTACATTTTTTTCTTTTT [CACACA_negctrl_site1289]	8.51 ± 0.45
AATTAAGTTAAACATTAAAAAAAACAAAAAATTAAA [CACACA_negctrl_site1333]	8.45 ± 0.49
GCTTTTGAAAATATACACATGTTAGGAATACAGGGG [TGCATGCA_negctrl_site480]	9.26 ± 0.59
TATAATAACAATTTAGTGCATATAATAATATTTTAT	8.39 ± 0.24
ACATATAAAATGTATACACACAAATATTACAGAGAT [CACACA_site4920]	8.78 ± 0.48
ATATATACATATATATGTACGTATATTTTTATTTCT [XGTACX_site6198]	8.56 ± 0.33
ATTTAACAACTTCAAACACACAATATAGATTTATAT [CACACA_site7067]	8.44 ± 0.4
TATAAACCCACCTACACACACAACGTAAATGCATTG [CACACA_site2238]	8.98 ± 0.77
AATTTAAACAAGGATCCACACACCCCAAAAAAAAAA [CACACA_site8125]	9.33 ± 0.65
AATAATTAAAATTATCTACACACCTTTATAAATATA [CACACA_site9300]	8.13 ± 0.46
CCTGAACACATACATACACACACACTAATAAAAAAA [CACACA_site8023]	8.61 ± 0.52
GCCATTAATTTATACACACACATTATGATTTTTTAT [CACACA_site754]	8.86 ± 0.28
TACAAACTATGATGCACACATATATATATGTATACA [CACACA_site1226]	8.7 ± 0.37
AAAATGTGCCCACGCGTACACACAAAAAAAGAAAAA [CACACA_site2004]	8.665 ± 0.064
ATGCATATGTTTATTGCACACACCAAAAAGAAAACA [CACACA_site403]	8.88 ± 0.31
ATACCAAATGAATAATGTACATACGAACATACATAT [XGTACX_site1301]	8.47 ± 0.41
AAAAGATTAAGTAGAATAATGTTCTTTCCCAACATA [GTGCAC_negctrl_site223]	8.04 ± 0.35
ATATTTTTAACCAAGGACACAATTCTTGTATTGTTA [CACACA_negctrl_site1326]	8.26 ± 0.38

Sequence	gcPBM binding intensity (ln)
GTACATTGTAAGGATGGAAAAGCTAAACATTATAAT [XGTACX_negctrl_site339]	8.93 ± 0.56
TAAGTCGTTATAAGCACACACATAAATAAAAATAAA [CACACA_site1574]	8.72 ± 0.38
ATATATTTATATAGGTGTACATATTTTGCTATTCAA [XGTACX_site5199]	8.46 ± 0.38
TCAATTTTTTAATGTTGTACTTTGTAAAAAAAAATA [XGTACX_site8481]	8.35 ± 0.17
AAGGGTTATAAAAATTGTACTTTTTTTATTTTTTTT [XGTACX_site1313]	8.5 ± 0.41
TTATCTTAATTGTGATTATAAAGATATTCTTTCTAT [GTGCAC_negctrl_site410]	8.06 ± 0.35
CAACCTCATAATATTTAACACACAAAATTATATGTA [CACACA_site8496]	8.2 ± 0.36
CATTTAGAATAAGGCACACATAAAGAACACTTTCCA [CACACA_site130]	8.54 ± 0.44
TATTCTGGTGTAAATGCACACAGAAGAAGAAAAAAA [CACACA_site9225]	8.71 ± 0.2
AAGGACACCTTCAAAACACACATACAAATAAATAGA [CACACA_site5771]	8.79 ± 0.5
AATAAATAAAAAAAAAAAAAAAAAAAAAAAAAAAAA [XGTACX_negctrl_site343]	7.87 ± 0.33
TTTTTTTTTTTTGTAATACACACCACTATATGTTAT [CACACA_site1844]	8.56 ± 0.49
TTCTGTTGGAATATATGTACATAATAAAAAAAAATA [XGTACX_site1741]	8.62 ± 0.45
AGTTTTATAAAAATATGTACTTATATACACATGTAT [XGTACX_site4022]	8.62 ± 0.36
TATGGCAAAACATTCACACATATTTATATATGTGTA [CACACA_site5588]	8.11 ± 0.44
TGTAGTCTGGAGAAAAGTACACAGTATCTGGTAACA [XGTACX_site2010]	8.46 ± 0.47
CGTATTATTTTATAAACACACAAGGGGGCATGTATA [CACACA_site6489]	10.1 ± 0.44
CTTTAGTTTTTAATGTGTACTGAATTTGAATAGTAG [XGTACX_site7920]	8.59 ± 0.071
TTGATATGTACAGGCACACATAAATTTCACAAATAT [CACACA_site3999]	8.47 ± 0.33
CATAAATGTATATAAACATGCAAGGACAGACTTTTA [TGCATGCA_site900]	8.76 ± 0.42
ATATAATTAAAAACATGTACATATATATATATATAT [XGTACX_site2882]	10.2 ± 0.55
GTAAAAATACAAAAGGTGCTCAAACAATATAATACA	8.87 ± 0.36

Sequence	gcPBM binding intensity (ln)
AAAATTAAATTATAAGCACACACATATATATATATA [CACACA_site9105]	10.2 ± 0.52
TACATACAGATATATACACACATATATAATATATAT [CACACA_site4376]	8.52 ± 0.44
TACATACCTATATACACATGCATATTTACATATATT [TGCATGCA_site206]	9.09 ± 0.42
TATATAATATATATGACACACATATTTATATAAATA [CACACA_site4054]	8.29 ± 0.4
AATGGATTGATAAGTGGTACACACATATATATTATA [XGTACX_site6086]	8.66 ± 0.38
GAATATTAAACAAACACACACACATATATTTATATA [CACACA_site7563]	8.63 ± 0.42
AAAAGATATATTATATGTACTAATTATATGATAAAT [XGTACX_site4192]	8.43 ± 0.28
AAAGAGAAATTTAAATGTACATTTGTTCTAAGTGTA [XGTACX_site3602]	8.49 ± 0.35
AATTATGAAAAATCAAGTACAAACAAAATCATAATT [XGTACX_site5665]	8.94 ± 0.63
CATACACCCATACATACACACATACATATATATATA [CACACA_site8591]	9.895 ± 0.064
ATATAATGTTTCACATGTACAAACAACACAAAAAAA [XGTACX_site1899]	8.73 ± 0.47
TATTATATTCTGCTTACACACATATATATATATATA [CACACA_site3060]	10.3 ± 0.38
TTAAAAAAAGAAAAAAAAAAAAAAAAAAAAAAACAT [CACACA_negctrl_site475]	8.29 ± 0.5
TATAAAAATATTTCTACACACATTAATATTTATATA [CACACA_site6661]	8.31 ± 0.36
GTGATAATTGCTTGGTGTACCCACATATATATATAT [XGTACX_site1636]	9.98 ± 0.29
GTTCTAAATATTATTGCATGTTGCACGTTTCTCTGT [TGCATGCA_site159]	9.09 ± 0.3
TATTATATTTATATTTGTACTTAAAATATTATACAC [XGTACX_site2881]	8.41 ± 0.35
AGTATACGCAAACACACACACACAAAAAAAAAAAAA [CACACA_site426]	8.27 ± 0.54
AAATAAGAAAATCATAGTACATAGGAATAGAAGAAC [XGTACX_site3135]	9.38 ± 0.34
AGAAAAATTATATATACACACTTATATTTATATATA [CACACA_site5555]	8.17 ± 0.33
TACGTTCTGATATATACACACCTGGTATTAATTATG [CACACA_site7113]	8.93 ± 0.46
TTTTTTTTTTTAAATTGTACTTATTTTATATTATAT [XGTACX_site1077]	8.41 ± 0.32

Sequence	gcPBM binding intensity (ln)
TATTAAATATTGTAATGTACATATATAATATAATAT [XGTACX_site1809]	8.53 ± 0.17
ATATCTTATTTTCCTTGTACTTATTTCATAATTACA [XGTACX_site3894]	9.01 ± 0.4
AATGTCATGATACATACACACACATACACATACACA [CACACA_site8665]	8.54 ± 0.56
TAAATATGTATAAATTGTACAAAATATATGAATAGT [XGTACX_site5659]	8.94 ± 0.29
CAATAAACCATTTTTTGTACATAAAAATAGGTATTG [XGTACX_site1892]	8.51 ± 0.41
AATTTCCCATATTACACACATACTATGATATATAAA [CACACA_site3834]	8.68 ± 0.39
CACATATAGTTATATGCACACATCTTACACATCTAT [CACACA_site5937]	8.63 ± 0.18
AACACAGATAAATTAACACACACACCCATATATATA [CACACA_site9310]	8.9 ± 0.36
CAATTTGGGGTGTACACACACCTTATTTAAATTAAA [CACACA_site6663]	8.43 ± 0.33
TTGAACTCTCTTACGCGTACGTGTTATTATGAAAAT [XGTACX_site6265]	8.85 ± 0.47
TAGCTTATTAATATCATACACACATAGATATATTTA [CACACA_site3105]	8.28 ± 0.5
ATGAAATATCGGAACGCACACATAAATATATTTATA [CACACA_site2670]	8.66 ± 0.65
TATATATATATATGTGCATGTAATGATTCAGCATCT [TGCATGCA_site803]	10.1 ± 0.3
ATGTAAATATATATATGTACTAATTAGTAGTTTACG [XGTACX_site6271]	8.92 ± 0.44
AAAAGGAATATAATCATTCAAAAATATAATATATAT [GTGCAC_negctrl_site551]	8.34 ± 0.28
TTACATAATTTCTGCTGTACCAATTTTGAGAAGTTG [XGTACX_site4023]	8.54 ± 0.45
ATCTTAACTCTATGCACACATAAAAGTATATAAATA [CACACA_site2256]	8.63 ± 0.28
TCCTTATTACTTTTTTAAGTCGTAATGAAAGAAAAA [CACACA_negctrl_site1497]	8.2 ± 0.36
TTTTATAAATTATAATTCTATTATCTGTTCTTTTTA [TGCATGCA_negctrl_site487]	8.51 ± 0.41
CATACATACATACATACACACATACAGATATATATA [CACACA_site4890]	9.15 ± 0.32
TTTTATTTTTTTAAATGTACACATATTAATGTAAGG [XGTACX_site319]	8.41 ± 0.16
ATCATCCAAGATCTTACACACATATTAAATAAATAA [CACACA_site1473]	8.48 ± 0.48

Reference: the supplement of paper PMC11417369
